# From the supplement of paper PMC8728848
# This is one part of the list.
# Columns and labels:
# Test in all cases: glycan array binding signal (z-score within array); higher = stronger binding
# Settings in all cases: glycan notation: IUPAC condensed, linker removed
# [1] = biological target: GlcNAc(a1-4)Gal(b1-4)GlcNAc(b1-3)Gal(b1-4)GlcNAc
# Outline: (§1)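 The Consortium for Functional Glycomics database supplied 3228 glycan arrays, of which those lacking an available protein sequence were dropped. The binding signal, a within-array Z-score, was averaged across arrays of the same protein sequence and across linkers. Negative scores can be read as non-binding.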
# [2] = biological target: GlcNAc(a1-4)Gal(b1-4)GlcNAc(b1-3)Gal(b1-4)GlcNAc(b1-3)Gal(b1-4)GlcNAc
# Outline: as §1
# [3] = biological target: GlcNAc(a1-4)Gal(b1-4)GlcNAc(b1-3)Gal(b1-4)[Fuc(a1-3)]GlcNAc(b1-3)Gal(b1-4)[Fuc(a1-3)]GlcNAc
# Outline: as §1
# [4] = biological target: GlcNAc(a1-6)Gal(b1-4)GlcNAc
# Outline: as §1
# [5] = biological target: GlcNAc(b1-2)Gal(b1-3)GalNAc
# Outline: as §1
# [6] = biological target: GlcNAc(b1-2)Man(a1-3)[GlcNAc(b1-2)Man(a1-6)]Man(b1-4)GlcNAc(b1-4)GlcNAc
# Outline: as §1
# [7] = biological target: GlcNAc(b1-2)Man(a1-3)[GlcNAc(b1-2)Man(a1-6)]Man(b1-4)GlcNAc(b1-4)[Fuc(a1-6)]GlcNAc
# Outline: as §1
# [8] = biological target: GlcNAc(b1-2)Man(a1-3)[GlcNAc(b1-4)][GlcNAc(b1-2)Man(a1-6)]Man(b1-4)GlcNAc(b1-4)GlcNAc
# Outline: as §1
# [9] = biological target: GlcNAc(b1-2)[GlcNAc(b1-4)]Man(a1-3)[GlcNAc(b1-2)Man(a1-6)]Man(b1-4)GlcNAc(b1-4)GlcNAc
# Outline: as §1
# [10] = biological target: GlcNAc(b1-2)[GlcNAc(b1-4)]Man(a1-3)[GlcNAc(b1-4)][GlcNAc(b1-2)Man(a1-6)]Man(b1-4)GlcNAc(b1-4)GlcNAc
# Outline: as §1
# [11] = biological target: GlcNAc(b1-2)[GlcNAc(b1-4)]Man(a1-3)[GlcNAc(b1-4)][GlcNAc(b1-2)[GlcNAc(b1-6)]Man(a1-6)]Man(b1-4)GlcNAc(b1-4)GlcNAc
# Outline: as §1
# [12] = biological target: GlcNAc(b1-2)[GlcNAc(b1-6)]Man(a1-6)[GlcNAc(b1-2)Man(a1-3)]Man(b1-4)GlcNAc(b1-4)GlcNAc
# Outline: as §1
# [13] = biological target: GlcNAc(b1-2)[GlcNAc(b1-6)]Man(a1-6)[GlcNAc(b1-2)Man(a1-3)][GlcNAc(b1-4)]Man(b1-4)GlcNAc(b1-4)GlcNAc
# Outline: as §1
# GlcNAc(b1-3)Gal = biological target: GlcNAc(b1-3)Gal
# Outline: as §1
# [14] = biological target: GlcNAc(b1-3)Gal(b1-3)GalNAc
# Outline: as §1
# GlcNAc(b1-3)Gal(b1-4)Glc = biological target: GlcNAc(b1-3)Gal(b1-4)Glc
# Outline: as §1
# [15] = biological target: GlcNAc(b1-3)Gal(b1-4)GlcNAc
# Outline: as §1
# [16] = biological target: GlcNAc(b1-3)Gal(b1-4)GlcNAc(b1-3)Gal(b1-4)GlcNAc
# Outline: as §1
# GlcNAc(b1-3)GalNAc = biological target: GlcNAc(b1-3)GalNAc
# Outline: as §1
# GlcNAc(b1-3)Man = biological target: GlcNAc(b1-3)Man
# Outline: as §1
# [17] = biological target: GlcNAc(b1-3)[GlcNAc(b1-4)][GlcNAc(b1-6)]GlcNAc
# Outline: as §1
# [18] = biological target: GlcNAc(b1-3)[GlcNAc(b1-6)]Gal(b1-4)GlcNAc
# Outline: as §1
# [19] = biological target: GlcNAc(b1-3)[GlcNAc(b1-6)]GalNAc
# Outline: as §1
# [20] = biological target: GlcNAc(b1-4)Gal(b1-4)GlcNAc
# Outline: as §1
# GlcNAc(b1-4)GlcNAc = biological target: GlcNAc(b1-4)GlcNAc
# Outline: as §1
# [21] = biological target: GlcNAc(b1-4)GlcNAc(b1-4)GlcNAc
# Outline: as §1
# [22] = biological target: GlcNAc(b1-4)GlcNAc(b1-4)GlcNAc(b1-4)GlcNAc(b1-4)GlcNAc
# Outline: as §1
# [23] = biological target: GlcNAc(b1-4)GlcNAc(b1-4)GlcNAc(b1-4)GlcNAc(b1-4)GlcNAc(b1-4)GlcNAc
# Outline: as §1
# [24] = biological target: GlcNAc(b1-4)[GlcNAc(b1-6)]GalNAc
# Outline: as §1
# [25] = biological target: GlcNAc(b1-6)Gal(b1-4)GlcNAc
# Outline: as §1
# GlcNAc(b1-6)GalNAc = biological target: GlcNAc(b1-6)GalNAc
# Outline: as §1
# GlcNAc3Prop(b1-4)GlcNAc = biological target: GlcNAc3Prop(b1-4)GlcNAc
# Outline: as §1
# [26] = biological target: GlcNAc6S(b1-3)Gal(b1-4)GlcNAc
# Outline: as §1
# Kdn(a2-3)Gal(b1-3)GalNAc = biological target: Kdn(a2-3)Gal(b1-3)GalNAc
# Outline: as §1
# Kdn(a2-3)Gal(b1-3)GlcNAc = biological target: Kdn(a2-3)Gal(b1-3)GlcNAc
# Outline: as §1
# Kdn(a2-3)Gal(b1-4)Glc = biological target: Kdn(a2-3)Gal(b1-4)Glc
# Outline: as §1
# Kdn(a2-3)Gal(b1-4)GlcNAc = biological target: Kdn(a2-3)Gal(b1-4)GlcNAc
# Outline: as §1
# [27] = biological target: Kdn(a2-3)Gal(b1-4)[Fuc(a1-3)]GlcNAc
# Outline: as §1
# Kdn(a2-6)Gal(b1-4)GlcNAc = biological target: Kdn(a2-6)Gal(b1-4)GlcNAc
# Outline: as §1
# [28] = biological target: Man(a1-2)Man(a1-2)Man(a1-3)Man
# Outline: as §1
# [29] = biological target: Man(a1-2)Man(a1-2)Man(a1-6)[Man(a1-3)]Man
# Outline: as §1
# Man(a1-2)Man(a1-3)Man = biological target: Man(a1-2)Man(a1-3)Man
# Outline: as §1
# [30] = biological target: Man(a1-2)Man(a1-3)[Man(a1-2)Man(a1-6)]Man
# Outline: as §1
# [31] = biological target: Man(a1-2)Man(a1-3)[Man(a1-2)Man(a1-6)]Man(a1-6)[Man(a1-2)Man(a1-2)Man(a1-3)]Man
# Outline: as §1
# [32] = biological target: Man(a1-2)Man(a1-3)[Man(a1-2)Man(a1-6)]Man(a1-6)[Man(a1-2)Man(a1-2)Man(a1-3)]Man(b1-4)GlcNAc(b1-4)GlcNAc
# Outline: as §1
binder,measurement,setting,value
"CVN (Nostoc ellipsosporum), P81180 (protein) LGKFSQTCYNSAIQGSVLTSTCERTNGGYNTSSIDLNSVIENVDGSLKWQPSNFIETCRNTQLAGSSELAAECKTRAQQFVSTKINLDDHIANIDGTLKYE",glycan array binding signal (z-score),[1],-0.203
same,glycan array binding signal (z-score),[2],-0.3
same,glycan array binding signal (z-score),[3],0.346
same,glycan array binding signal (z-score),[4],-0.301
same,glycan array binding signal (z-score),[5],-0.306
same,glycan array binding signal (z-score),[6],-0.281
same,glycan array binding signal (z-score),[7],1.13
same,glycan array binding signal (z-score),[8],-0.304
same,glycan array binding signal (z-score),[9],0.024
same,glycan array binding signal (z-score),[10],-0.298
same,glycan array binding signal (z-score),[11],-0.294
same,glycan array binding signal (z-score),[12],-0.3
same,glycan array binding signal (z-score),[13],-0.302
same,glycan array binding signal (z-score),GlcNAc(b1-3)Gal,-0.304
same,glycan array binding signal (z-score),[14],-0.296
same,glycan array binding signal (z-score),GlcNAc(b1-3)Gal(b1-4)Glc,-0.302
same,glycan array binding signal (z-score),[15],-0.234
same,glycan array binding signal (z-score),[16],-0.296
same,glycan array binding signal (z-score),GlcNAc(b1-3)GalNAc,-0.306
same,glycan array binding signal (z-score),GlcNAc(b1-3)Man,-0.301
same,glycan array binding signal (z-score),[17],-0.305
same,glycan array binding signal (z-score),[18],-0.302
same,glycan array binding signal (z-score),[19],-0.302
same,glycan array binding signal (z-score),[20],-0.296
same,glycan array binding signal (z-score),GlcNAc(b1-4)GlcNAc,-0.301
same,glycan array binding signal (z-score),[21],-0.305
same,glycan array binding signal (z-score),[22],-0.305
same,glycan array binding signal (z-score),[23],-0.306
same,glycan array binding signal (z-score),[24],-0.295
same,glycan array binding signal (z-score),[25],-0.302
same,glycan array binding signal (z-score),GlcNAc(b1-6)GalNAc,-0.302
same,glycan array binding signal (z-score),GlcNAc3Prop(b1-4)GlcNAc,-0.3
same,glycan array binding signal (z-score),[26],-0.222
same,glycan array binding signal (z-score),Kdn(a2-3)Gal(b1-3)GalNAc,-0.196
same,glycan array binding signal (z-score),Kdn(a2-3)Gal(b1-3)GlcNAc,-0.306
same,glycan array binding signal (z-score),Kdn(a2-3)Gal(b1-4)Glc,-0.296
same,glycan array binding signal (z-score),Kdn(a2-3)Gal(b1-4)GlcNAc,-0.298
same,glycan array binding signal (z-score),[27],-0.271
same,glycan array binding signal (z-score),Kdn(a2-6)Gal(b1-4)GlcNAc,-0.305
same,glycan array binding signal (z-score),[28],5.16
same,glycan array binding signal (z-score),[29],5.83
same,glycan array binding signal (z-score),Man(a1-2)Man(a1-3)Man,3.06
same,glycan array binding signal (z-score),[30],3.6
same,glycan array binding signal (z-score),[31],7.15
same,glycan array binding signal (z-score),[32],5.21
